From PubChem BioAssay AID1460 (National Center for Advancing Translational Sciences (NCATS), 2008)
Among all 270,000 compounds or so, about 5,800 (2.1%) were called active. The inconclusive results got no clear call from the source; some entries with a clear call stand among them for comparison. Calls follow the shape of the dose curve; as a rule, active = well fitted inhibition curve with a large enough effect; inconclusive = small, poorly fitted or top-dose-only effect; inactive = flat fitted curve, though single readings scatter. Potencies beside an inconclusive call are fits to weak or partial responses and may not hold up.
% is scaled to controls: 0 for no effect and ±100 for the full control effect; potency is read from the fitted curve at half-maximal effect; tags tell the direction and shape of the fitted curve.
Also: nearly all actives have a fitted effect of over 55% in size.

The compounds below were run against Microtubule-associated protein tau (Homo sapiens) (UniProt P10636) (assay: qHTS for Inhibitors of Tau Fibril Formation, Thioflavin T Binding). Conditions: recombinant tau K18 P301L, heparin-induced fibrillization, ThT fluorescence; series mostly up to 57.4 µM; activity, negative = inhibition: at the top concentration.
Chain of UniProt P10636 (P10636 whole entry, looked up): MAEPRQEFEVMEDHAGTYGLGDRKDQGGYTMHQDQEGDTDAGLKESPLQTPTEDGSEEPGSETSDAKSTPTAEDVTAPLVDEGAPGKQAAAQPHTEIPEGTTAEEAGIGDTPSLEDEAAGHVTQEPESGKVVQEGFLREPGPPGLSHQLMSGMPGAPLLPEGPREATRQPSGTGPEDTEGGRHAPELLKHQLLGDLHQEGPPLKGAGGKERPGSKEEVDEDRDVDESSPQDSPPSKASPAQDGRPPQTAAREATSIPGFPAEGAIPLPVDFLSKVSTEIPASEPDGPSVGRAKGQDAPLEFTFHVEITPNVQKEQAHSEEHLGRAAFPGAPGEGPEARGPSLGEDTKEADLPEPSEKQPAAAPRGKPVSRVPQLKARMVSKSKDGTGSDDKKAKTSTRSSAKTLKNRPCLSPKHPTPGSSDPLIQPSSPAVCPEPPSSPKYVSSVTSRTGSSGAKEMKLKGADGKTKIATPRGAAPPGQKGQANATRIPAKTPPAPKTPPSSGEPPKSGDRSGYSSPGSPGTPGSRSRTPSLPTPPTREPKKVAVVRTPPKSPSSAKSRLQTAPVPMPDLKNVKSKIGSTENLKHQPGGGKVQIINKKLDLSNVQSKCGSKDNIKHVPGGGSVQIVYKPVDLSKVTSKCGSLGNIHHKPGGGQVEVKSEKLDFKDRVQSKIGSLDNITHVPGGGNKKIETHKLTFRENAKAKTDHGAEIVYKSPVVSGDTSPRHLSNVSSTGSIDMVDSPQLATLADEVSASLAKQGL
Method in brief: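 ThT emission at 510 nm, taken 1 hr after adding 30 uM dye, quantifies aggregates formed when 20 uM heparin acts on human tau K18 P301L for 6 hr at 37 C.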
For `Cc1c(-c2ccc(Cl)cc2)oc(=O)c2c(N)n(-c3ccccc3)nc12`, the Potency was inconclusive: 2.82 µM [inhibitor, full curve, poor fit].
In the case of `CCc1nc2scc(-c3cccs3)c2c(=O)o1`, the Potency is reported as inconclusive: 39.8 µM [inhibitor, single point].
For `Cc1nc(S/C(=C/c2ccc(-c3ccc(C(=O)O)cc3)o2)C(=O)O)n[nH]1`, the Potency was active: 4.47 µM.
In the case of `CCOc1ccc(C(=O)Nc2ccc3oc(-c4cccc5ccccc45)nc3c2)cc1`, the Potency is reported as inconclusive: 0.794 µM [inhibitor, full curve].
`CCOC(=O)C1=C(C)N=C2c3ccccc3C(=O)C2C1c1ccc(Br)cc1` (stereo unspecified) was tested, and the Potency was inconclusive: 14.1 µM [inhibitor, partial curve].
In the case of `COc1ccc(CN(C(=O)Cn2nnc(-c3ccc(C)o3)n2)C(C(=O)NCC2CCCO2)c2ccco2)cc1` (stereo unspecified), the Potency is reported as inconclusive: 3.16 µM [inhibitor, full curve].
In the case of `O=C(CN1CCN(C(=O)N2CCOCC2)CC1)Nc1ccc(Br)cc1`, the “activity, negative = inhibition” value is reported as inactive: -5.91%.
With `Cc1ccc(C)c(NC(=S)Nc2cccnc2)c1` the “activity, negative = inhibition” value was inactive: -2.26%.
For `CC(C)c1nc2ccc(C(=O)NCCCN3CCN(c4ccccc4)CC3)cc2o1`, the “activity, negative = inhibition” value was inactive: -10.3%.
With `CCCCNC(=O)N1CCN(Cc2cccc(F)c2)CC1` the “activity, negative = inhibition” value was inactive: -7.42%.
In the case of `COc1ccc(CC(=O)Nc2ccc(OC)nc2)cc1`, the “activity, negative = inhibition” value is reported as inactive: 0.979%.
For `NCCC[C@@H](CC(=O)N[C@@H]1CCNC[C@H]1C(=O)N[C@H](CC(=O)N[C@@H](CCC(=O)O)CC(=O)O)Cc1ccccc1)NC(=O)C[C@H](Cc1c[nH]c2ccccc12)NC(=O)[C@@H]1CCCC[C@H]1N`, the Potency was inconclusive: 10 µM [inhibitor, partial curve].
In the case of `CC(=O)Nc1nn(C)c2nc3cc(C)ccc3cc12`, the Potency is reported as inconclusive: 44.7 µM [inhibitor, single point].
For `Cc1ccc(C(=O)NCCC(C)C)cc1NC(=O)c1nsc2ccccc12`, the “activity, negative = inhibition” value was inactive: -3.38%.
With `CCN(CC)c1ccc(NC(=O)Cn2c3ncccc3c(=O)n2-c2ccccc2)c(C)c1` the “activity, negative = inhibition” value was inactive: -2.63%.
With `CC1(C)CC(N=C2C([N+](=O)[O-])=CC=C3C2=NC2(CCCCC2)N3O)CC(C)(C)N1` the Potency was inconclusive: 11.2 µM [inhibitor, partial curve].
For `CN1CCN(CCCNC(=O)c2ccc(/C=C3/Sc4ccccc4N(Cc4cccc(Cl)c4)C3=O)cc2)CC1`, the “activity, negative = inhibition” value was inactive: -6.73%.
`O=c1cc(N2CCN(Cc3ccccc3)CC2)[nH]c(=O)n1-c1ccc(Br)cc1` was tested, and the Potency was inconclusive: 25.1 µM [inhibitor, single point].
For `O=S(=O)(NCC(c1ccco1)N1CCOCC1)c1ccc(F)cc1` (stereo unspecified), the “activity, negative = inhibition” value was inactive: -2.06%.
In the case of `Cc1cc(C)c2oc(C(=O)Nc3c(C(=O)c4ccccc4)oc4ccccc34)cc(=O)c2c1`, the “activity, negative = inhibition” value is reported as inactive: -4.61%.
`Cc1ccc(C2(O)CN(c3ccccc3)C3=[N+]2CCS3)cc1` (stereo unspecified) was tested, and the Potency was inconclusive: 25.1 µM [inhibitor, single point].
`COC(=O)c1cc(S(=O)(=O)N2CCN(c3cc(Cl)ccc3C)CC2)c[nH]1` was tested, and the “activity, negative = inhibition” value was inactive: 7.65%.
For `Cc1ccc(NC(=O)CSc2nc(N)c3c4c(sc3n2)CSC(C)(C)C4)cc1`, the “activity, negative = inhibition” value was inactive: 15%.
With `O=c1c2c(-c3ccco3)csc2nc(SCc2cn3cccnc3n2)n1-c1ccccc1` the Potency was inconclusive: 22.4 µM [inhibitor, partial curve].
`NNc1cc([N+](=O)[O-])cc2c1C(=O)N(Cc1ccccc1)S2=O` (stereo unspecified) was tested, and the Potency was active: 25.1 µM.
With `COC(=O)C1=C(C(=O)OC)[C@@H]2Nc3ccccc3[C@@]23C[C@@H](C(=O)OC)N(S(=O)(=O)c2ccc(C#N)cc2)C3=N1` the activity, negative = inhibition was inactive: -1.53% [at 11.5 µM].
`CCc1nnc(NC(=O)CSc2nc(-c3ccc(OC)cc3)ns2)s1` was tested, and the “activity, negative = inhibition” value was inactive: -1.51%.
`COC(=O)c1ccc(C)c(NC(=O)Cc2coc3cc(OC)ccc23)c1` was tested, and the “activity, negative = inhibition” value was inactive: -5.26%.
`N#Cc1c(NCc2ccccc2)ccnc1NCc1cccnc1` was tested, and the “activity, negative = inhibition” value was inactive: -16.5%.
For `CCCc1c(C(=O)Nc2ccc(N3CCOCC3)cc2)cnn1-c1ccccc1`, the Potency was inconclusive: 8.91 µM [inhibitor, partial curve, poor fit].
With `COc1cccc(-c2nn(C)c3sc(C(=O)NCc4ccc(C)o4)cc23)c1` the “activity, negative = inhibition” value was inactive: -0.811%.
`Cc1cc2cc(CNC(=O)c3ccc(S(=O)(=O)N4CCCCC4)cc3)ccc2n1C` was tested, and the “activity, negative = inhibition” value was inactive: -16.2%.
For `CC(C)N1CCc2c(sc(NC(=O)c3ccc(S(=O)(=O)N(C)C4CCCCC4)cc3)c2C(N)=O)C1`, the Potency was inconclusive: 39.8 µM [inhibitor, single point].
With `CC1CCN(c2csc3ccc(F)cc3c2=O)CC1` the Potency was inconclusive: 17.8 µM [inhibitor, partial curve, poor fit].
`CCOc1ccccc1Nc1nc(-c2sc(NC(=O)c3ccco3)nc2C)cs1` was tested, and the Potency was inconclusive: 10 µM [inhibitor, partial curve].
With `CCCCN=Cc1c(C)[nH]n(-c2ccccc2)c1=S` the Potency was inconclusive: 20 µM [inhibitor, partial curve, poor fit].
For `CCOC(=O)c1oc2nc3c(cc2c1N)CCCC3`, the Potency was inconclusive: 14.1 µM [inhibitor, partial curve, poor fit].
In the case of `COc1ccc(/C=C/c2cc(=O)c3cc(Cl)ccc3o2)cc1`, the Potency is reported as inconclusive: 3.16 µM [inhibitor, full curve].
With `CC(=O)Nc1ccc(-n2c(=O)c3ccccc3c3ccccc3c2=O)cc1` the Potency was inconclusive: 39.8 µM [inhibitor, single point].
For `Cc1cccc(CSc2ncnc3ccccc23)c1`, the Potency was inconclusive: 31.6 µM [inhibitor, single point].
For `O=C(NNc1ccccc1)C(=O)NNS(=O)(=O)c1ccc([N+](=O)[O-])cc1`, the “activity, negative = inhibition” value was inactive: -5.91%.
In the case of `Cc1ccc2c(c1)-c1c(cnn1CC(=O)N1CCN(c3cc(C)ccc3C)CC1)CO2`, the “activity, negative = inhibition” value is reported as inactive: -7.82%.
For `O=C(C[n+]1cc(-c2ccc(Br)cc2)n2c1CCCCC2)c1ccccc1`, the Potency was inconclusive: 17.8 µM [inhibitor, single point].
With `COc1ccccc1CNC(=O)C1CCN(C2=NS(=O)(=O)C(c3ccc(C)c(C)c3)=C2C)CC1` the Potency was inconclusive: 1.78 µM [inhibitor, full curve, poor fit].
With `CC(C)Cc1nn2c(=O)cc(COC(=O)c3cccc(NS(C)(=O)=O)c3)nc2s1` the “activity, negative = inhibition” value was inactive: -13.6%.
With `Cc1ccc(OCC(=O)Nc2ccc(-c3nnc(-c4ccco4)o3)cc2)cc1` the Potency was inconclusive: 1.58 µM [inhibitor, full curve].
For `CCCN1CCN(CCCNC(=O)c2ccc3c(c2)sc2nc(-c4ccc(OCC)cc4)cn23)CC1`, the Potency was inconclusive: 22.4 µM [activator, partial curve].
With `Cc1c(NS(=O)(=O)c2cc(NC(=O)CCN3CCCC(C)C3)ccc2Cl)c(=O)n(-c2ccccc2)n1C` (stereo unspecified) the “activity, negative = inhibition” value was inactive: -5.17%.
In the case of `Cc1cc(C)c2c(c1)cc(C)c1nnc(SCC(=O)Nc3ccccc3N3CCOCC3)n12`, the Potency is reported as inconclusive: 20 µM [inhibitor, single point].
For `Cc1nc(-c2ccc(F)cc2)sc1CCNC(=O)c1ccc(OC(C)C)cc1`, the Potency was inconclusive: 17.8 µM [inhibitor, partial curve, poor fit].
For `COc1ccc(/C(N)=N/OC(=O)c2ccco2)cc1`, the “activity, negative = inhibition” value was inactive: -2.96%.
`CCc1nnc(NC(=O)CSc2nnc(-c3ccccc3NC(=O)c3ccccc3)o2)s1` was tested, and the “activity, negative = inhibition” value was inactive: -8.91%.
For `COc1ccc(/C=C/C(=O)OCC(=O)Nc2ccc(N3CCOCC3)cc2)cc1OC`, the “activity, negative = inhibition” value was inactive: -33.1%.
In the case of `Cc1cc([N+](=O)[O-])nn1CC(=O)Nc1sc2c(c1C(N)=O)CCCC2`, the Potency is reported as inconclusive: 22.4 µM [inhibitor, partial curve, poor fit].
In the case of `Cc1cc(N2CCN(c3ccccc3)CC2)n2cnnc2n1`, the Potency is reported as inconclusive: 12.6 µM [inhibitor, partial curve].
`CC(C)(C)c1ccc(C(=O)Nc2ccc(OCc3cc(=O)n4ccsc4n3)cc2)cc1` was tested, and the Potency was inconclusive: 0.447 µM [inhibitor, full curve, poor fit].
`CC(C)Nc1ccc(Nc2ccnc3cc4ccccc4cc23)cc1` was tested, and the Potency was active: 5.01 µM.
For `Clc1ccccc1-c1nnc2sc(-c3cccs3)nn12`, the “activity, negative = inhibition” value was inactive: -2.43%.
With `COc1ccc(-c2c[n+]3c4n2CCCCC4=C(c2ccc(Br)cc2)C3)cc1` the Potency was inconclusive: 25.1 µM [inhibitor, partial curve].
In the case of `O=C(N1CCCC1)C12CC3CCC(CC(C3)C1)C2`, the “activity, negative = inhibition” value is reported as inactive: -7.09%.
In the case of `Cc1cc(C)c(C#N)c(SCCN2CCOCC2)n1`, the “activity, negative = inhibition” value is reported as inactive: -9.27%.
For `N#CC1=C(N)S[C@@H](C(=O)c2ccc(F)cc2)[C@@H]1c1cccs1`, the Potency was inconclusive: 35.5 µM [inhibitor, single point].
`CNC(=S)NNC(=O)c1ccccc1Br` was tested, and the “activity, negative = inhibition” value was inactive: -21.7%.
For `COc1cc(SC)ccc1C(=O)N1CCN(c2ccc(O)cc2)CC1`, the Potency was inconclusive: 12.6 µM [inhibitor, partial curve].
With `N#C/C(=C\c1ccc(OCc2ccc(F)cc2)cc1)C(=O)Nc1cccc(C(=O)O)c1` the Potency was inconclusive: 0.141 µM [inhibitor, full curve].
For `COc1ccc(/C=N/Nc2ncnc3c2[nH]c2ccccc23)c(OC)c1OC`, the “activity, negative = inhibition” value was inactive: 0.964%.
For `COc1ccc(CCCC(=O)N/N=C/c2cccc(OC)c2O)cc1C`, the Potency was inconclusive: 3.55 µM [inhibitor, full curve].
In the case of `COc1cc(CSc2ncc(CO)n2Cc2ccc(C)cc2)cc(OC)c1`, the “activity, negative = inhibition” value is reported as inactive: -6.2%.
In the case of `Cc1[nH][nH]c(=O)c1C(c1ccccc1[N+](=O)[O-])C(C#N)C#N` (stereo unspecified), the Potency is reported as inconclusive: 31.6 µM [inhibitor, partial curve].
`CC(C)c1ccc(CN(C(=O)/C=C/c2ccco2)C2CCS(=O)(=O)C2)cc1` (stereo unspecified) was tested, and the Potency was inconclusive: 25.1 µM [inhibitor, single point].
For `O=C(CSc1nc2ccccc2[nH]1)N1c2ccccc2Sc2ccccc21`, the Potency was inconclusive: 17.8 µM [inhibitor, partial curve].
